# Reference: article PMC12136788
# The other results are listed elsewhere or left out.
# T1: UNK ZnF1-6 (called full-length) (human, UniProt Q9C0B0 30-357)
# T1 sequence: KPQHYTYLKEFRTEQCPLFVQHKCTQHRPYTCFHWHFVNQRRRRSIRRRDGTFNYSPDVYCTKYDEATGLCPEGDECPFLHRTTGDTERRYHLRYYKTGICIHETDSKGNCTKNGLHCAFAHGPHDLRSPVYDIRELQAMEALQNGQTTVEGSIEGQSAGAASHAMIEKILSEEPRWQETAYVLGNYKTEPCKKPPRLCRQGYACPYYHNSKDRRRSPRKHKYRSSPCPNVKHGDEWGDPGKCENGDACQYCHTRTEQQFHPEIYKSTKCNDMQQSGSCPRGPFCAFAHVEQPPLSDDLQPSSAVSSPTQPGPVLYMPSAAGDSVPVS
# B1: chr11:4094911:4095012:+|5pUTR|ENSG00000167325|unk|total|mutant (ssRNA)
# RNA: GGGAGUUCUACAGUCCGACGAUCAGCAGCGCCUGGAACCUAACCCUUCCCACUCUGUCACCUUCUCGAUCCCGCCGGCGCUUCCGAGCCGCAGUCCAGUCUUGGAUCCUUCAGAGCCUCAGCCACCCGCUGCGAUGCAUGUGACAACAGAGGAUUGAGCAUCA
# B2: chr6:158785413:158785514:-|CDS|ENSG00000092820|msi1|total|mutant (ssRNA)
# RNA: GGGAGUUCUACAGUCCGACGAUCGAGCUCAUCCAGGACAUCACCCAGAAACUUUUCUUCCUCCAAGUGAAGGAAGGAAUCCUCCGCGAUGAGAUCUACUGCCCCCCUGAGACUGCCGUGCUCUUGGGGUCCUACGCUGUGCAGCAACAGAGGAUUGAGCAUCA
# B3: chr6:89938216:89938327:-|CDS|ENSG00000112182|unk|total|mutant (ssRNA)
# RNA: GGGAGUUCUACAGUCCGACGAUCUCUUCCAAGGAACGAUUUCCAGAUGAUGAUUAAAAUGCACAAGCUAACCUCAGAACAGUCCGAGUUUAUUCAUGAUGUCCGACGGCGCAGCAAGAACCGCAUCGCGGCCCAGCGCUGCCGCAACAGAGGAUUGAGCAUCA
# B4: chr10:24583932:24584033:-|3pUTR|ENSG00000107863|unk|total|mutant (ssRNA)
# RNA: GGGAGUUCUACAGUCCGACGAUCAACAAAAGUGCCUCAUCAUAAAAAUACAGUUGGUUUUCCGGGUGCCAUAUUGUUAAAAUCCGAUAACUUACUUACAUUGAAUAAACGAAUGCGUUUUAUUGGUAACAGAUAUCAUUACAUCAACAGAGGAUUGAGCAUCA
# B5: chr7:130192614:130192715:-|CDS|ENSG00000146842|msi1|FALSE|unique (ssRNA)
# RNA: GGGAGUUCUACAGUCCGACGAUCUACAUGACCGACCUACGAACUUUGGAUACUUUUCUCAGAAGUGAAGAGGAGAAACAGCAUAGGGUUAAGCUGGGUACAUAUAUAUUUCUGUAUAUCUACUAUACAUAUUUUUGGUGUCAACAACAGAGGAUUGAGCAUCA
# B6: ENSG00000198837:stop:overlap|stop_codon|ENSG00000198837|stop_codon|NA|stop_codon (ssRNA)
# RNA: GGGAGUUCUACAGUCCGACGAUCAGAUGCCCACUCCCAAGGCCAUUGACUGCCGAAAAUGUUUUGGAGCACCUCCAGAAUGCUAGAGACCUUAAGCUUCCCUCUCCAGCCUAGGGUGGGGAAGUGAGGAAGAAGGGAUUCUAGCAACAGAGGAUUGAGCAUCA
# B7: ENSG00000070961:be:win_1851|CDS|ENSG00000070961|bound_else_gene|NA|bound_elsewhere_windowed (ssRNA)
# RNA: GGGAGUUCUACAGUCCGACGAUCUAAUGGUGAGGCAAAAGUAUUCAGACCAAGGGACCGUGAUGAUAUUGUAAAAACUGUGAUUGAACCGAUGGCAUCAGAAGGCUUGAGAACCAUAUGUCUUGCAUUCAGAGAUUUUCCAGCCAACAGAGGAUUGAGCAUCA
# B8: chr19:17262551:17262990:-|CDS|ENSG00000130307|control|control|control (ssRNA)
# RNA: GGGAGUUCUACAGUCCGACGAUCUGCCAGCGAGAGGCAGCUCGCCUGGCCGAGAGGAAUGCCUGGCUCCGGCUGGCCCUGAGUAGCCGAGAGGAUGAGCUGGUCCGCACGCAGGCCUCCCUGGAGGCCAUCCGAGCUGAGAAGCAACAGAGGAUUGAGCAUCA
# B9: chr8:17969608:17969733:+|CDS|ENSG00000078674|unk|total|mutant (ssRNA)
# RNA: GGGAGUUCUACAGUCCGACGAUCUUCUAAUUUUGGAGAUUUUUCUCAGAAUAUCUCUACACCCAGUGAACAGCAGCAACCCUCCGCCCAGAAUUCUUCAGGAAAAACAGAAUAUAUGGCUUUUCCAAAACCUUUUGAAAGCAGCAACAGAGGAUUGAGCAUCA
# B10: chr12:67313014:67313056:+|3pUTR|ENSG00000111530|msi1_unk|FALSE|overlapping (ssRNA)
# RNA: GGGAGUUCUACAGUCCGACGAUCUUUUUGUAGCAUUUAUUUCAGAAAUGUGUAUUUCCAUAAUCCAGAGGUUGUAAAACCACUAGUGUUUUAGUGGUUACAGCAACAUUUGAAAUGGAAACUAAAAGUUAGGAUUUUAUGGAGCAACAGAGGAUUGAGCAUCA
# B11: ENSG00000196396:stop:overlap|stop_codon|ENSG00000196396|stop_codon|NA|stop_codon (ssRNA)
# RNA: GGGAGUUCUACAGUCCGACGAUCCUACGGUCCUCACGGCCGGCGCUUACCUCUGCUACAGGUUCCUGUUCAACAGCAACACAUAGCCUGACCCUCCUCCACUCCACCUCCACCCACUGUCCGCCUCUGCCCGCAGAGCCCACGCAACAGAGGAUUGAGCAUCA
# B12: chr11:26667019:26671251:-|three_prime_utr|ENSG00000148942|control|control|control (ssRNA)
# RNA: GGGAGUUCUACAGUCCGACGAUCACACACACGUGCAAUACACACACACACACACAAACUCCACAUACUUCUUGCCUACUUGUUAGUAGAUAUGUAUAGUUGCCAUUGCUAGAAGACAGGGAUGUCUGGUGCCUAUUUCUACUUCAACAGAGGAUUGAGCAUCA
# B13: chr11:47420279:47420382:-|CDS|ENSG00000165916|unk|total|mutant (ssRNA)
# RNA: GGGAGUUCUACAGUCCGACGAUCAAACAGGGUGGACAUCCUGGACCCCGCCCUCCUCCGCUCGGGCCGCCUUGACCGCAAGACCGAGUUCCCGAUGCCCAAUGAGGAGGCCCGGGCCAGAAUCAUGCAGAUCCACUCCCGAAACAACAGAGGAUUGAGCAUCA
# B14: chr5:6669452:6669553:+|3pUTR|ENSG00000145545|unk|total|mutant (ssRNA)
# RNA: GGGAGUUCUACAGUCCGACGAUCCAUCUCAUCUGGAGUUUUUAAAUGCCAUUUGUUUCAGUUGUCUUUAACAACAUAAUAAACCGACUUUGCCAUUUAACAAGGCCGCUCAAAUUCUUUUACUAAUUGUUACAUCGAAACAUUCAACAGAGGAUUGAGCAUCA
# B15: chr1:17283265:17283432:+|3pUTR|ENSG00000142619|msi1|FALSE|unique (ssRNA)
# RNA: GGGAGUUCUACAGUCCGACGAUCCAUGUGGUUCUCAGACUUGAAUCUUCUCGGCCCCCCAAAAAGAAGGACCUCAUUUCUUAUAGCCUCUCCUGUGAUUCAACACAACCCAUGGAGAUGUCCCCUUCUCACUCUGAAAUCAUCCAACAGAGGAUUGAGCAUCA
# B16: chr4:76435395:76435496:+|5pUTR|ENSG00000138771|msi1|FALSE|unique (ssRNA)
# RNA: GGGAGUUCUACAGUCCGACGAUCUUUUCUCUCCUAAGAAACAAACUAUGAACUGAUUGUUGAAAAAAAGAAGUAAAAAGUUUUAGCACAGCUUCUCUGUCUCUUCGGGACAAGUUAGAAAAUUCUGAAGUGAGCCGAAGCAUACAACAGAGGAUUGAGCAUCA
# B17: chr17:2060671:2060772:-|3pUTR|ENSG00000070366|unk|FALSE|unique (ssRNA)
# RNA: GGGAGUUCUACAGUCCGACGAUCCCGUGCUCUCGGGUGGCCUCCACCUGCUCCCUCUCUCCUCACUGGCCUUUCUUUCCGUCUAGCUUCCUCUUCAGGAAAUGUCCUGACUCCCCUCAGCUCCCCCUUCACCCCUCCUUGCCCCAACAGAGGAUUGAGCAUCA
# B18: chrX:130625084:130625185:-|3pUTR|ENSG00000165675|msi1|FALSE|unique (ssRNA)
# RNA: GGGAGUUCUACAGUCCGACGAUCAGUUCCUUUGAAUUUGUCAGUUCAUUCCUGGAAAAUCUUUUGAGUUAAAAUAAGGAUCCUAGGACAGCACCUCGAACUACAGGCCCUAAAGAGAAAUUGCCUCAAACCACAAGUGCUGUACAACAGAGGAUUGAGCAUCA
# B19: chr1:248294618:248295578:-|CDS|ENSG00000177201|control|control|control (ssRNA)
# RNA: GGGAGUUCUACAGUCCGACGAUCUGGCUGUGGUGUGCAGAUCUUCUUCCUCCCCACACUGGGUGGUGGAGAGUGCUUCCUCUUAGCAGCCAUGGCCUAUGACCGCUAUGCGGCUGUCUGCCACCCACUCCGAUAUCCCACUCUCAACAGAGGAUUGAGCAUCA
# B20: chr16:74449243:74449344:-|3pUTR|ENSG00000090863|msi1|total|mutant (ssRNA)
# RNA: GGGAGUUCUACAGUCCGACGAUCUCUCCUAUCCUCCCAUCCUCCAGGCCUGUGGUGUGACUUCUGCCCCGAAGUUCCUACUACCGUGAGUCAUCUGGGGAGAGGCCACUGAAAAGAGGCCUUCCCUUCCCAUUUCCUCCCCUGCAACAGAGGAUUGAGCAUCA
# B21: chr11:61799969:61800070:-|3pUTR|ENSG00000149485|msi1|FALSE|unique (ssRNA)
# RNA: GGGAGUUCUACAGUCCGACGAUCUUCUUUGCCACCUUUUGGGUGUGGUGUCACCAGCCUGUUUAGCCAAGUAGCUUUGGGCAUAGGCUGCCCAAUCUGAGCAAACACCAGUGAGGCUCUAUUGAGCCAAGACCAAGUCCUCAACAACAGAGGAUUGAGCAUCA
# B22: ENSG00000107863:be:win_5501|CDS|ENSG00000107863|bound_else_gene|NA|bound_elsewhere_windowed (ssRNA)
# RNA: GGGAGUUCUACAGUCCGACGAUCCUGUAAACCGGUUAAAACCAAAAUGCUCAGCCCAGGACCUUUCCAUCUCAGACUGGCUGGCCAGGGAACGCCUACGCACCAGUACCUCUGACCUUAGCAGAGGAGAAAUCGGAGAUCCCCCAACAGAGGAUUGAGCAUCA
# Molecular target: T1, UNK ZnF1-6 (called full-length)
# Assay: nsRBNS (natural sequence RNA bind-n-seq); RBNS binding buffer (assumed for nsRBNS): 25 mM Tris pH 7.5, 150 mM KCl, 3 mM MgCl2, 0.01% Triton X-100, 500 ug/ml BSA, 20 U/ml SUPERase-In, 4 C; UNK is unkempt and MSI1 is Musashi-1; names of the RNAs are library labels; protein concentration not given here; high values mean tight binding
row,Binder,binding signal [enrichment R]
1,B1,0.809
2,B2,0.554
3,B3,0.383
4,B4,0.341
5,B5,0.506
6,B6,0.858
7,B7,0.481
8,B8,0.907
9,B9,0.457
10,B10,0.85
11,B11,0.465
12,B12,0.932
13,B13,0.632
14,B14,0.527
15,B15,0.504
16,B16,0.731
17,B17,1.19
18,B18,0.5
19,B19,0.604
20,B20,0.676
21,B21,0.419
22,B22,0.673
